Read counts are not given, so values of variants with three or more changes are uncertain.

B1: LINE1-full (parent)
chain: UACGUAGGUGGUUUUCCCCUGAUAGUGCUAAGGGGGCCUGGAAGUUUGGACUGGGCAGAGCUCAACACAGCGUGGCAAAGUGGCUGUGGCUAGACUGCCUCUCUGGAUUCCUCGUCACUCAGCAGGGCAUCUCUGAGAGAAAUGCC

The data set covers variants of B1. The data set can be described thus: self-cleavage, relative activity (ratio to wild type); higher = more cleavage; in vitro, sequencing; the parent is a self-cleaving ribozyme.
In the case of U85C C113A U119C A141G, the self-cleavage came out at 0.17.
As for G82A U132A U134C, the self-cleavage worked out at 2.05.
As for G74U U130C U143A, the figure is 1.97.
With G82A A121U U132G, the self-cleavage is 2.2.
The result for A77U U119A A140G reads 1.15.
The result for A79G U96A A136G reads 0.08.
As to A78G U112A A121G, the self-cleavage is 0.
The result for U73G A124G U134C reads 1.48; that for A78G C116U A140G, 0.89; that for U73A A78G A79C, 1.17.
For U81A A94G U102A U108C U143A, the self-cleavage came to 0.
The result for U73A A140G A142G reads 1.
The result for A78U U85C U109C reads 0.1; that for A79G U119C U132C, 0.97; that for G74A U91C U134C, 0.44.
As to U85A U119C A138U, the self-cleavage amounted to 0.13.
U81A A124U A141G: the self-cleavage worked out at 2.51.
As for A77G U109C U134C, the figure is 2.85; as for A77G U130C A136U, 2.81; as for U81A U87C U119C U143C, 0.45.
The result for U73C U81C U85C reads 0.35; that for G72A U119C G122A A142G, 1.29; that for A78G U112C A138G, 1.34.
The result for A77U A124G G139A reads 1.26; that for A78G U100C A136G, 1.81.
As for G83A U112C A124G A136G, the self-cleavage was 0.24.
As for U85C U104A A140G, the figure is 0.02.
As for U73A U91G U104A A124G U134C, the figure is 0; as for G74A A77G U100C U108C, 2.19; as for U73A U96C A138G, 0.24.
As for A77U A136U C146U, the figure is 0.94; as for A79G A94G U104C, 0.74; as for G83A U96C U134C, 0.08.
With A78G G106A U108A A141U, the self-cleavage is 1.41.
As for U73C C103A A129G, the self-cleavage was 0.57.
As for U73A U96A U134C, the figure is 0.02.
Take U73C U119A A129G: the self-cleavage stood at 1.36.
The result for A78G G93A A138U reads 0; that for U85A U102A A141G, 0.14.
Regarding A79G U112A U143A, the self-cleavage turned out to be 2.14.
As for U81C U130C C145U, the figure is 0.62; as for G83A U91C G135U, 0.43.
As for U73A A121G A140G, the figure is 1.93; as for A79G A124G A140G, 0.39; as for A77G U96A A142G, 0.02.
As for G74A U96C A121G A124G, the self-cleavage amounted to 0.08.
The result for U85C G89U U134G A140G reads 0.02.
The result for A78U A138G U143C reads 2.19.
As for A77G U115C A117U A140G, the figure is 2.87; as for A77C A117C U119C, 1.41.
Regarding A79G A92G A142G, the self-cleavage was 0.27.
As to A79G U85C U108C, the self-cleavage was 0.
As for U73A A77G U112C, the figure is 2.77; as for A77U G97A U143C, 0.05; as for G83A U91C A92G C145U, 0.1.
As for G83A U109C U115C, the figure is 0.46; as for G75U A79G U85G, 0.1; as for A77G U87C U112C, 1.15.
The result for A79G U130C A136U A142G reads 1.59; that for A78G G80U A136G A141G, 2.72.
As for U73C U87C C101U U102C, the self-cleavage was determined as 0.
As for G82A U104C A136G, the figure is 1.73.
As for A77U G114A A124U C128U, the figure is 0.89.
The result for G80C A124U A141G reads 0.42.
In the case of U73A U112A U134C, the self-cleavage worked out at 2.43.
The result for C76U A94G U112C reads 0.19; that for U81C U96C U109A, 0.
The result for A79U U81C U112G reads 0.33; that for A78G U81C A117U, 0.84.
The result for G74A A77U A94G A107G reads 0.07.
Consider A78G U85A C90A, for which the self-cleavage was found to be 0.11.
As for G72A U112C U119A, the figure is 1.05; as for U81A A121U A142G U143C, 2.51; as for U73A G89A G106A U112C A138G, 0.02.
On to A79U G83A A107G A121U, for which the self-cleavage worked out at 1.64.
As for U73A A94G A129U, the figure is 0.18; as for A79G U87A U130C, 0.06.
With A77G U85C A142G, the self-cleavage was found to be 0.5.
The result for A78G U100C U112C reads 1.25.
As for G75A A129U A136G, the figure is 0.97; as for G75A A117G U132C, 1.94.
As for A77G U115C A142G, the figure is 1.15; as for A77U A78G U104A U108C C116A A129G A140G, 0.45.
Regarding U85C G89A C128G A136U, the self-cleavage was determined as 0.03.
As for U73C G86A U143G, the figure is 0.11.
The result for U85A U87C A121U reads 0.05; that for U73C A78G G83U U108A A129G C146A, 1.75; that for U73A A107U A117U, 1.66.
The result for U73C U85A U112C reads 0.11; that for U81C U100C U108C G137U C145U, 1.15.
Regarding G83U A94U U100A, the self-cleavage was determined as 0.18.
As for G74A A94G A142G, the figure is 0.05; as for G74A U87C A142G, 0.1.
As for A78G U91C G114A, the figure is 0.26; as for A79G C90U A92G, 0.06; as for U81A G82U G93U, 0.04.
As for A79U U102C A136U, the figure is 1.79; as for A79G U108C C113A U134C, 1.79; as for U85C U91A C131G, 0.11.
For A79G U104A U115A, the self-cleavage is 1.53.
As for A79G U104A U115C, the figure is 1.84; as for A77U A94G U102C, 0.15; as for A77G U85C A107U A129U A136U, 0.09.
As for G75A C113U A117U, the figure is 0.61; as for A77C A78G A129G, 1.31; as for A77G U115C U119C, 2.19.
As for U85C U100C U132A, the figure is 0.81.
With A79G U102A A140G, the self-cleavage is 1.24.
The result for A78U A121U G127A reads 1.97; that for G83A C128U A138G, 0.77.
The result for U85C A94G U108C reads 0.
Turning to U81A U87C A124G, the self-cleavage stood at 0.22.
Regarding A79U C90A A107G U119C, the self-cleavage stood at 0.04.
For C76A U115C U132C, the self-cleavage came to 1.86.
As for G80A U87C A107G, the figure is 0.41; as for A78G U102A A142G, 1.47.
Take A78G U109C A136G: the self-cleavage came out at 1.38.
The result for U81A U104C U132C reads 2.68; that for A78G A107G U134C, 1.8; that for A77G A136G A138U, 2.67.
With U81C G82A U104C A140G, the self-cleavage worked out at 1.8.
For G82U U109A A140G, the self-cleavage was 0.43.
As for A78G G106A A141G, the figure is 1.42.
The result for A79G U96C U143C reads 0.
As for G75A U100C G114A, the figure is 1.43; as for A77G U108A U112A, 1.87; as for U85C C110U A136G, 0.1.
Take A79G U96A U115C: the self-cleavage turned out to be 0.05.
The result for U81A U85A U108C reads 0.14; that for A77U A140U U143C, 1.09.
The result for U85C A94U A121G reads 0; that for U73C U104C G105U, 2.04; that for A78G G88A A136G, 0.07.
The result for U81G A94U U130C C146U reads 0.37; that for A79G U119A U132C, 0.9; that for A79G U102C A140G, 1.72.
For the variant A78G U87C G125A, the self-cleavage was 0.15.
The result for U85C U87C U132C reads 0; that for A77G A79G U119C A140G, 0.
The result for U73C U100A U104A reads 1.83; that for A77G U96C A142G, 0.07; that for G75A G82A U132A, 1.3.
As for A79G U108C C111A, the figure is 2.18; as for U73C A124G A129G, 0.66.
As for U81A U87A U108C U112C, the self-cleavage turned out to be 0.32.
Regarding G82A C116A A136G, the self-cleavage was 1.58.
As for U81A A117G A124U A136G, the figure is 2.01; as for G82A A92G C95A U108G U112C, 0.07; as for A77U U102C A140G, 0.34.
As for G74U U115C A142U, the figure is 2.4; as for G83A U96C A142G, 0.1.
The result for A77U A79G U104A reads 1.43; that for A77G U119G C133U, 1.65.
As for G74A U102G U134G, the self-cleavage turned out to be 1.36.
For the variant U81A U109C A141G, the self-cleavage was 2.94.
As for A79G G80A U134C, the figure is 0.98.
The result for G83A U119C A129U reads 1.45; that for A77U U96A U104A, 0.05.
The result for U85C C120U A141G G144A reads 0.1; that for A77U G88A A129G, 0.04; that for C84A U96A A141G, 0.04.
Turning to G80A U91A A92G, the self-cleavage was determined as 0.08.
As for U73A A94G A107G, the figure is 0.33; as for U73C A78U U134C, 2.14.
The result for A77U G86A A136G reads 0.08; that for U73C A94U A140G, 0.49; that for U73C U85C A136G, 0.
